Reference: PubChem BioAssay AID995 (National Center for Advancing Translational Sciences (NCATS), 2007)
“And” between values parts separate entries of the source, which are not always exact repeats. Equal entries are not always repeated. Screen size: about 72,000 compounds; about 710 (0.99%) were called active. Inconclusive results, whose numbers are uncertain, are shown with a selection of clear calls. Calls come from the whole dose curve; as a rule, active = well fitted inhibition curve with a large enough effect; inconclusive = small, poorly fitted or top-dose-only effect; inactive = no such curve, though single readings can be large or run the other way. A potency beside an inconclusive call is a rough fit, not a confirmed value.

assay: qHTS Assay for Inhibitors of the ERK Signaling Pathway using a Homogeneous Screening Assay; conditions: HEK293-V1b, vasopressin-stimulated pERK AlphaScreen; activity, negative = inhibition: at 57.5 µM (top of the series) unless noted; note: nearly all actives have a fitted effect of over 55% in size
In short: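 qHTS, compounds titrated on V1b-expressing HEK293 cells. Preincubation 30 min at 37C, vasopressin 25 nM for 5 min, lysis 10 min, bead incubation 5 hr at room temperature.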
% is set by controls: 0 for no effect and ±100 for the full control effect; potency is the fitted concentration of half-maximal effect; tags give direction and shape of the fitted curve.

| SMILES | activity, negative = inhibition | Potency |
| --- | --- | --- |
| CCCCNC(=O)C(c1ccc(OCC(=O)OC)c(C(=O)OC)c1)N(CCc1ccccn1)C(=O)CCCCCN1C(=O)NC(c2ccc(-c3ccccc3)cc2)C(C(=O)OCc2ccccc2)=C1C (centres undefined) | inactive: -0.781% | – |
| CCOC(=O)CNc1c(-c2ccc(O)cc2)nc2ccc(Cl)cn12 | – | inconclusive: 39.8 µM [inhibitor, single point] |
| O=C(NCc1ccc2c(c1)OCO2)c1ccc(COc2cccc(Cl)c2)o1 | – | inconclusive: 20 µM [inhibitor, single point] |
| O=C(CC1Sc2ncnn2C1=O)Nc1ccc(Br)cc1 (centres undefined) | – | inconclusive: 31.6 µM [inhibitor, partial curve] |
| c1ccc(-c2nc(N3CCCCCC3)c3ccccc3n2)nc1 | – | inconclusive: 12.6 µM [inhibitor, partial curve] |
| CC(C(=O)Nc1ccc2c(c1)OCO2)N(c1ccc(Cl)cc1)S(C)(=O)=O (centres undefined) | – | inconclusive: 25.1 µM [inhibitor, partial curve, poor fit] |
| CCn1c(=O)cc(SCC(=O)Nc2ccc3c(c2)OCCO3)c2ccccc21 | – | inconclusive: 1.26 µM [inhibitor, full curve, poor fit] |
| N#Cc1c2n(c3c(=O)n(Cc4ccccc4)cnc13)CCCC2 | inactive: -26.4% | – |
| CC(C)=NOCc1ccc(-c2cc(-c3ccccc3)no2)cc1 | inactive: 22.3% [at 11.5 µM] | – |
| CCOC(=O)c1[nH]c(C)c(CCC(=O)OC)c1C | – | inconclusive: 15.8 µM [inhibitor, partial curve] |
| C=CCOC(=O)C1=C(C)OC(N)=C(C#N)C1c1c(C)nn(-c2ccccc2)c1Cl (centres undefined) | – | inconclusive: 31.6 µM [inhibitor, single point] |
| C=CCSC1=C(C#N)C(c2ccccc2Cl)CC(=O)N1 (centres undefined) | inactive: -14.4% | – |
| COc1ccc(OC)c(Nc2ncnc3c2cnn3-c2ccccc2)c1 | – | inconclusive: 39.8 µM [inhibitor, single point] |
| CCCOc1ccccc1-c1nc2c([nH]1)c(=O)[nH]c(=O)n2C | inactive: -8.18% | – |
| Oc1[nH]c2ccccc2c1/C=N/c1nccs1 | inactive: -19.1% | – |
| O=C(CSc1nc2scc(-c3ccco3)c2c(=O)n1-c1ccccc1)N1CCOCC1 | – | inconclusive: 25.1 µM [inhibitor, single point] |
| Cc1ccc(-c2nc(CS(=O)(=O)CC(=O)N3CCc4ccccc4C3)c(C)o2)cc1 | – | inconclusive: 12.6 µM [inhibitor, partial curve] |
| Cc1cc(=O)n2c(ccc3ccccc32)c1C#N | – | inconclusive: 39.8 µM [inhibitor, single point] |
| COc1ccc2c(Cl)c(C(=O)NCCCn3ccnc3)sc2c1 | – | inconclusive: 7.94 µM [inhibitor, partial curve, poor fit] |
| Cc1ccccc1CS(=O)(=O)CCC(=O)NCCCN1CCN(c2ccccc2F)CC1 | inactive: -6.23% | – |
| Nc1nc(Nc2ccccc2)nc2c1ncn2[C@@H]1O[C@@H](CO)[C@H](O)[C@H]1O | inactive: -12.4% | – |
| Cc1ccccc1-c1nccc(NCc2cccnc2)n1 | – | inconclusive: 31.6 µM [inhibitor, single point] |

| SMILES | activity, negative = inhibition | Potency |
| --- | --- | --- |
| CC1CCCN(S(=O)(=O)c2ccc(NC(=O)c3cccc(-n4cnnn4)c3)cc2)C1 (centres undefined) | – | inconclusive: 3.98 µM [inhibitor, partial curve, poor fit] |
| CC(C)Cn1c(=O)n(C)c(=O)c2[nH]cnc21 | – | inconclusive: 20 µM [inhibitor, partial curve] and inconclusive: 12.6 µM [inhibitor, partial curve] |
| CN1CCc2c(sc3c2c(=O)n(-c2ccccc2)c2nncn32)C1 | – | inconclusive: 39.8 µM [inhibitor, single point] |
| O=C1CSC(=S)N1CC1CCCO1 (centres undefined) | inconclusive: -32.5% [inhibitor] | – |
| CC1CCN(S(=O)(=O)c2ccc3c(c2)oc(=O)n3CC(=O)NCc2ccc3c(c2)OCO3)CC1 | – | inconclusive: 31.6 µM [inhibitor, single point] |
| COc1ccc(Oc2ncc3nc(-c4ccccc4)c(=O)n(C[C@H]4CCCO4)c3n2)cc1 | – | inconclusive: 25.1 µM [inhibitor, single point] |
| CC(C)=NOCc1cccc(-c2cc(-c3ccccc3)no2)c1 | inactive: 17.3% [at 11.5 µM] | – |
| CCc1ccc(-c2nc(CN3CCC(C(=O)NCCc4ccc(OC)c(OC)c4)CC3)c(C)o2)cc1 | – | inconclusive: 20 µM [inhibitor, partial curve, poor fit] |
| CCc1nc2ccccc2n1Cc1ccc(OC)c(OC)c1 | – | inconclusive: 39.8 µM [inhibitor, single point] |
| CC(C)(C)OC(=O)NCCc1nnc(SCC(=O)Nc2cccc(Cl)c2)o1 | – | inconclusive: 39.8 µM [inhibitor, partial curve] |
| Cc1cccc(C)c1OCC(=O)Nc1cccc(NC(=O)c2ccco2)c1 | – | inconclusive: 39.8 µM [inhibitor, single point] |
| CCc1ccc(NC(=O)NCCN2CCc3ccccc3C2)cc1 | inactive: 36.3% | – |
| Nc1nc(-c2cccs2)c(NC(=O)c2ccccc2)s1 | – | inconclusive: 20 µM [inhibitor, partial curve] |
| CN(C)CCCN1c2ccccc2Sc2ccc(Cl)cc21 | – | inconclusive: 15.8 µM [inhibitor, partial curve] |
| COc1cc(N)c(Cl)cc1C(=O)N[C@H]1CCN(CCCOc2ccc(F)cc2)C[C@@H]1OC | – | active: 31.6 µM |
| CCn1c(O)c(C2=NCCCC2)c2ccccc21 | – | inconclusive: 15.8 µM [inhibitor, partial curve, poor fit] |
| Cc1occc1-c1nnc(SCc2nc3ccccc3c(=O)n2CC#N)n1C | – | inconclusive: 31.6 µM [inhibitor, single point] |
| O=C(Cc1cccs1)NCc1ccco1 | inactive: -15.5% | – |
| NCCOB(c1ccccc1)c1ccccc1 | – | inconclusive: 15.8 µM [inhibitor, partial curve] |
| C=CCn1c(N)c(C(=O)NCCC2=CCCCC2)sc1=S | inactive: 1.94% | – |
| O=C1OCCC1Sc1nc2ccccc2n1-c1ccccc1 (centres undefined) | – | active: 15.8 µM |
| CCSC1=C(C#N)C2(CCCC2)C(C#N)=C(N)N1 | – | inconclusive: 31.6 µM [inhibitor, single point] |
